Source: the RNAGym collection of RNA variant scans (doi:10.7554/elife.90254)
The source gives no read counts; variants with many changes may rest on few reads.

B1: LINE1-full (parent)
chain: UACGUAGGUGGUUUUCCCCUGAUAGUGCUAAGGGGGCCUGGAAGUUUGGACUGGGCAGAGCUCAACACAGCGUGGCAAAGUGGCUGUGGCUAGACUGCCUCUCUGGAUUCCUCGUCACUCAGCAGGGCAUCUCUGAGAGAAAUGCC

Variants of: B1
Experiment: self-cleavage, relative activity (ratio to wild type); higher = more cleavage; in vitro, sequencing; the parent is a self-cleaving ribozyme

Variant	self-cleavage
C76U U85A U119C	0.23
U26C A69G U73A G74A	0.74
U12G U20G G86A	0.14
U14C U47C U73A	1.58
U15C U108A A141G A142G	2.63
A77G A79U U112C	2.06
A77G A78G C123U	2.3
U26A G135U A140U	1.35
G36C U52A U130A	0.29
U39G U62C A94G	0.15
A30U A65U C111U	0.23
U1A U29C C71U A94G G114A	0.35
U46C G54A G74U A121U	1.41
U13C U20A G35U A67G	0.23
G74A A78G A121U	0.35
U9A A31G U96C	0
U5C G40A U47C U91C	0.44
A77U A129G A141C	1.72
A67U A78U U85C	0.03
U73A U85C A121G	0.06
G72A U134A A141G	1.66

Variant	self-cleavage
U14C U85C U108A	0.37
A77G G127A A140G	1.58
U39C A69U A77G	0
U9A A43G U130A	0.59
A31G A42U A59G A79G	0.39
U81C U102C U119A	0.34
U5C U73C A140G	2.3
U12G A22G A65U C76U A79G G114A	0.11
A42U U45C A129G	0.64
U9G U14C U45C C76U	0.82
U85C U115C A124G	0
U5C G34U U39A U96C A142G	0.26
U100C U102C U108C C123U	2.12
A57U U81C A92U	0.08
U15C U87C U112C	0.35
U9A U119A U132C	0.28
U13C A59G U85C U109A G144A	0.79
U1C C17U A65G	0.15
A59G G122U A141G	0.02
U1C A2G G34A U52A U62C A67G U132C A142U	0.33
U20C U46C U100C	0.93

Variant	self-cleavage
U13A U20C U26C A42G C71U U96C G97A	0.05
U5C U12C U20C U29A A124U	1.53
U14A U81A U102C	1.78
A43G U52A U100A U115C C123U	1.73
U13C U73C A121G	0.57
U1C U20C C98U A142G	0.11
G8U A43G U130C	1.96
U9A G74A U109A A138U	1.8
A94U U115A A141U	0.38
A6G U9C U109C	1.02
U9C A124U U143A	1.41
U29C A78G A124G	0.86
U1C C113A A124G	0.72
A59U U130C A142G	1.29
U12G U26A U47A A138G	1.21
G25U A31G G53A U85A U102A	0.07
U13C U62A U87C	0.17
A2G U85C U102A A140G	0
U26C G54A U115C	0.61
C18A U104A C110U A142G	1.64
A31G G35A U87C A140U	0.22

Variant	self-cleavage
A30G G32A A94G	0.57
U12C U26G G35A U73A	1.31
U15C G82A U102C	2.02
A6U U13C A138G	0.52
A24G A65G U108C	0
U9C A64U A79G U85C U108C	0.16
A43U C68U C110U U115A C146U	0.07
U12C A79G U112C A141G	0
C38U A59G U73C G80C	0.09
C3U A79G U134A A140G	0
U5A C37A U143C	0.53
U20A A30G U87C U104C	0.97
A50G U109A A141G	1.34
U45A U108C U112A	0.82
U45C A57U A140G	0.07
A64G C76U U87C A117U	0.15
A129G C131U C146U	2.35
A43G U85C G86U A141G	0.06
U13C A69G U109C C145U	0.15
U1C U9C A136G A138G	1.53
